Assay results published in PubChem BioAssay AID504706 (National Center for Advancing Translational Sciences (NCATS), 2011).
The campaign covered roughly 320,000 compounds. About 200 (0.062%) were called active. This list was built around the results that the source calls inconclusive (neither active nor inactive); the mix of calls is not that of the screen. The call rests on the fitted dose curve; in most records, active means well fitted activation curve with a large enough effect; inconclusive means small, poorly fitted or top-dose-only effect; inactive means no such curve, though single readings can be large or run the other way. No potency is given beside an inconclusive call; the fits are too rough.

Experiment: qHTS assay for re-activators of p53 using a Luc reporter; further: nearly all actives have a fitted effect of over 45% in size
Settings: H1299 p53-A138V BP100-luciferase reporter, luminescence, 24 h; series mostly up to 92.2 µM
From the text: The p53 tumor suppressor plays a key role in suppression of tumorigenesis and in human carcinogenesis. It is frequently found inactivated in human cancers, mainly by point mutation. These point mutations are found in a wide variety of human cancers and a majority of them affect the DNA binding domain of the protein. The point mutations either alter native p53 conformation or abolish DNA contact. Additionally, cancer cells with p53 mutations are more resistant to chemo-radiation therapies. In order to find activators to reactivate this important protein, a cell-based screen for p53-dependent luciferase-reporter expression was developed. A p53-null H1299 lung cancer cell line was stably co-transfected with a temperature sensitive p53 mutant, p53-A138V, and a p53-responsive BP100-luciferase reporter. This cell model has previously been characterized in a gene chip profiling experiment for p53 activation. By lowering the culture temperature from 37 deg C (mutant p53 conformation) to 32 deg C (w.t. p53 conformation), a 30-60 fold increase in activation of luciferase activity is observed. At assay temperate, 37 deg C, basal reporter expression is very low and after the addition of detection reagent, a luminescent read-out is carried out. NIH Chemical Genomics Center [NCGC] NIH Molecular Libraries Probe Production Centers Network [MLPCN] MLPCN Grant: DA031088-01A1 Assay Provider (PI): Yi Sung, University of Michigan at Ann Arbor
5ul of 1000 cells per well are dispensed in all wells except column 4, into white solid-bottom TC-treated Kalypsys plates. The cells are kept in Opti-MEM and supplemented with 10% FBS and dispensed using a Multidrop (Thermo). Then using the Kalypsys pin-tool, 23nl of compounds are pinned. The compounds are starting concentration at 10mM, with 1:5 dilution, 4 points, and the control compound nocodazole is pinned in column 1 at 25mM, 1:3 dilution, in duplicate, 25mM nocodazole is pinned in column 2. Please note, all concentrations are working concentrations. 5ul of 1pM purified luciferase enzyme is dispensed using the Kalypsys dispenser in column 4. Plates are incubated for 24 hrs at 37 deg C, 5% CO2, and 95% humidity. Then 4ul of the detection reagent Amplite (ABD Bioquest) is added using the Kalypsys dispenser. Plates are incubated for 10 min at ambient room temperature and are then read on the ViewLux (Perkin Elmer) using a clear filter for a luminescent read-out.
Potency means the concentration at half of the fitted maximal effect; tags describe the fitted curve by direction and shape.

Compound	Potency
COCCn1nnnc1C(c1cc2ccc(OC)cc2[nH]c1=O)N1CCN(C2CCCCC2)CC1 (centres undefined)	inconclusive [activator, single point]
COc1ccc(-c2[nH]nc3c2C(c2ccccc2OC(=O)N2CCOCC2)C(C#N)=C(N)O3)cc1 (centres undefined)	inconclusive [activator, full curve, poor fit]
O=C(NCc1ccccc1)c1csc2c1CCCCC2	inactive
CC1Cc2ccccc2N1C(=O)CSc1ncc(-c2ccc(F)cc2)n1C (centres undefined)	inconclusive [activator, full curve, poor fit]
COc1cccc(/C=C/C(=C2/C(=O)N(c3ccccc3)N=C2C)c2ccccc2)c1OC	inactive
O=C(CSc1nnc(-c2ccc(O)cc2)o1)Nc1ccccc1Br	inconclusive [activator, full curve, poor fit]
O=C(Nc1ccc(Cl)cc1)N1CCSc2ccccc21	inconclusive [activator, partial curve, poor fit]
Brc1ccccc1-c1nnc(CSc2nncn2-c2ccccc2)o1	inactive
O=C(NCc1ccccc1C(F)(F)F)c1cccc2c1C(=O)c1ccc(N3CCOCC3)cc1S2(=O)=O	inactive
O=C(CCc1ccccc1)NCCc1ccc(F)cc1	inconclusive [activator, single point]
COc1cccc(NC(=O)COC(=O)CCC(=O)c2cccs2)c1	inconclusive [activator, single point]
COC(=O)c1ccc(N2OC3(C)C=CC2CC3)cc1 (centres undefined)	inconclusive [activator, partial curve, poor fit]
CCOc1ccc(CN(C)C(=O)CCc2ccc(S(=O)(=O)N3CCCCCC3)cc2)cc1	inactive
CCN(c1ccccc1)S(=O)(=O)c1ccc(C(=O)Nc2cccc(C)n2)cc1	inactive
O=S(=O)(Nc1ccn(-c2ccccc2)n1)c1ccc(Br)cc1	inconclusive [activator, single point]
CCN(C(=O)COC(=O)/C=C/c1cccc([N+](=O)[O-])c1)c1c(N)n(Cc2ccccc2)c(=O)[nH]c1=O	inconclusive [activator, single point]
N#CCN(C(=O)COC(=O)CCCNC(=O)c1ccc(Cl)cc1)c1ccccc1	inconclusive [activator, single point]
CCCCCCCC(=O)N/N=C(\C)c1ccc(O)cc1O	inactive
CCOc1ccc(C(=O)NCC(=O)OCCCC(=O)c2ccc(F)cc2)cc1OCC	inactive
